Laboratory results as given in FireProtDB (doi:10.1110/ps.37401).

Conditions: Thermal, DSC
[1] = Homo sapiens, pH 6.6, N-(2-acetamido)iminodiacetic acid(ADA) 20 mM, NaCl 100 mM, reversible: yes

Row | Substance | Tm (Gallus gallus, pH 2.7, glycine hydrochloride 0.05 M, reversible: Unknown) [°C] | Tm [1] [°C] | unfolding enthalpy (calorimetric) [1] [kcal/mol] | unfolding enthalpy (van 't Hoff) [1] [kcal/mol]
1 | Lysozyme C wild type (no sequence given) | 66 | – | – | –
2 | Fibroblast growth factor 1 wild type (no sequence given) | – | 40 | 62.4 | 56.1
